In the supplement of paper PMC4166925:
± gives the standard deviation of the averaged measurements. Over roughly 33,000 sequences, “E-score (dimensionless, -0.5 to 0.5)” has its median near -0.046; the highest 2% begin near 0.36. Some of the results follow.

system: T1, SpTbr T-box DNA-binding domain (GST fusion); test: PBM E-score of 8-mer (E-score (dimensionless, -0.5 to 0.5)); Tbr is Tbrain of the sea star Patiria miniata (Pm) or the sea urchin Strongylocentrotus purpuratus (Sp); higher = stronger binding preference; most listed sequences are background and not binding sites; details: the construct has about 5 more residues each side
T1 sequence: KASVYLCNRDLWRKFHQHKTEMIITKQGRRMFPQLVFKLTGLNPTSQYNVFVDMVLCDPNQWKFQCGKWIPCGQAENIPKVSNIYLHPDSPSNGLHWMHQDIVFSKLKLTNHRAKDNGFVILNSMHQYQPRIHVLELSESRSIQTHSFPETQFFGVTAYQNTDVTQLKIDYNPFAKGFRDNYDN
How it was run: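 Primer extension turned Universal Agilent oligonucleotide arrays double-stranded. They were incubated with 200 nM protein in PBS (pH 7.5); the protein was a GST-fused Tbr T-box DNA-binding domain expressed in BL21 E. coli at 20 °C and purified on glutathione. Every ungapped 8-mer was scored from the scanned, quantified probe intensities, and the Universal PBM Analysis Suite gave each an enrichment E-score averaged over duplicate arrays.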

Row | Sequence | PBM E-score of 8-mer
1 | ACACGTCA | 0.319 ± 0.017
2 | ATTCCTCA | -0.0778 ± 0.036
3 | CCGAAACA | -0.00465 ± 0.06
4 | CTTGACTA | 0.0379 ± 0.0078
5 | AGCTGGAA | -0.143 ± 0.038
6 | ACACATTA | 0.291 ± 0.031
7 | ACGCATAA | -0.0185 ± 0.04
8 | AGCCCTGG | -0.298 ± 0.1
9 | GGCCCTCA | -0.225 ± 0.035
10 | GCCACTAC | 0.0706 ± 0.028
11 | GGCACGTA | -0.00172 ± 0.0099
12 | AGTCGGAG | -0.225 ± 0.015
13 | GCAACGGC | 0.0811 ± 0.022
14 | ATACGGGG | -0.183 ± 0.0059
15 | CTTTCGAC | -0.0638 ± 0.037
16 | AAACTGGC | 0.153 ± 0.041
17 | ATCAGAAC | -0.294 ± 0.0065
18 | AGGGGGTA | -0.0444 ± 0.0045
19 | AGCTGGCA | 0.0839 ± 0.018
20 | CCTTGCGA | 0.183 ± 0.056
21 | ATTATACC | 0.0935 ± 0.021
22 | ATATTGCA | 0.0552 ± 0.017

Row | Sequence | PBM E-score of 8-mer
23 | TAGCCAAA | -0.254 ± 0.021
24 | TGACCCAA | -0.129 ± 0.0059
25 | CTCTAGTC | -0.18 ± 0.059
26 | GCCTTCAA | -0.21549 ± 6.4e-05
27 | ATATCGCC | 0.12 ± 0.016
28 | AGTGCATG | -0.376 ± 0.015
29 | AACACACT | 0.211 ± 0.022
30 | CCTAGCGC | 0.142 ± 0.0078
31 | CAACCGTC | 0.0998 ± 0.056
32 | ACTTTCAC | 0.303 ± 0.019
33 | ACAAAGCT | -0.181 ± 0.03
34 | AATAGTAG | -0.128 ± 0.04
35 | AAAGTACG | -0.142 ± 0.097
36 | GTCATACA | 0.0278 ± 0.069
37 | GTTTGATA | -0.189 ± 0.062
38 | CGCAATTA | -0.0615 ± 0.068
39 | AACACTTA | 0.386 ± 0.031
40 | CATGGATA | -0.26 ± 0.017
41 | GCGAAAAC | 0.222 ± 0.05
42 | AATAACGT | -0.0159 ± 0.055
43 | CGTTAACA | 0.4129 ± 0.0026
44 | CGGGAGTC | -0.119 ± 0.032

Row | Sequence | PBM E-score of 8-mer
45 | ATAACAGG | 0.121 ± 0.069
46 | AAGATGAG | -0.2214 ± 0.0016
47 | GAGCTAGC | -0.0427 ± 0.028
48 | CTCGCTAC | 0.0733 ± 0.0086
49 | GATAGTGA | 0.228 ± 0.011
50 | CCAAGGGG | -0.174 ± 0.035
51 | GAGCCATA | -0.151 ± 0.031
52 | AAACCATA | -0.0963 ± 0.013
53 | AAGAGCAC | -0.148 ± 0.032
54 | CCACGCGA | 0.172 ± 0.028
55 | CGTGTCGC | 0.254 ± 0.045
56 | ACAGTCAG | -0.036 ± 0.11
57 | ACAATTAA | 0.0501 ± 0.084
58 | CACCAACC | 0.187 ± 0.089
59 | CACACTGG | 0.151 ± 0.0022
60 | AGAAGCGA | 0.0503 ± 0.052
61 | CAATCAGA | -0.0765 ± 0.023
62 | ATGTGAAG | 0.204 ± 0.039
63 | TGTAGTAA | -0.202 ± 0.058
64 | AATTGAAA | -0.26 ± 0.011
65 | CATCATTC | 0.0175 ± 0.013
66 | GATAATCA | 0.0739 ± 0.095

Row | Sequence | PBM E-score of 8-mer
67 | CACTGAGG | 0.0333 ± 0.099
68 | CCAGAATC | -0.147 ± 0.014
69 | GCTCTAAC | 0.0177 ± 0.017
70 | ATTCTGAC | -0.00299 ± 0.033
71 | CAGAAGTA | -0.263 ± 0.031
72 | CTCGGCTC | -0.00219 ± 0.046
73 | CATGGGGC | -0.233 ± 0.012
74 | GCAGCCAA | 0.0554 ± 0.022
75 | ATGAGTGA | 0.117 ± 0.027
76 | TCAACCCA | -0.174 ± 0.026
77 | AGGTAAGC | -0.261 ± 0.032
78 | CCAGCCGG | -0.00031 ± 0.015
79 | TCAGTGGA | -0.21 ± 0.0026
80 | ACAAACGA | 0.0375 ± 0.075
81 | AGTGATAG | 0.0834 ± 0.011
82 | TGCACGAA | -0.0165 ± 0.0071
83 | TCAAAAAA | -0.118 ± 0.026
84 | ACTGTTAT | 0.152 ± 0.032
85 | AAGTAACT | 0.0732 ± 0.026
86 | ATCTGCAT | -0.0843 ± 0.013
87 | CGAGTTGC | 0.122 ± 0.064
88 | ATCGACCG | -0.0685 ± 0.05

Row | Sequence | PBM E-score of 8-mer
89 | GCCTCACA | 0.292 ± 0.0099
90 | CGAAATCA | 0.108 ± 0.059
91 | CGAGAAGA | 0.105 ± 0.042
92 | ATCGCGAA | 0.367 ± 0.032
93 | AAGGCGAT | 0.0831 ± 0.031
94 | CTGGGCGA | -0.00319 ± 0.011
95 | GCCTTGAC | 0.0485 ± 0.061
96 | AAAAAGGT | 0.0679 ± 0.11
97 | AAGTAACA | 0.207 ± 0.017
98 | CCGCTGAA | -0.222 ± 0.046
99 | CCTGCTCA | -0.223 ± 0.064
100 | ACTACGAG | 0.0752 ± 0.021
101 | AAGGTCTA | -0.294 ± 0.019
102 | AATCGCAT | 0.113 ± 0.0034
103 | ATTGAAGC | -0.0568 ± 0.045
104 | CCAACACA | 0.299 ± 0.017
105 | TATTTGAA | -0.214 ± 0.013
106 | ACTCATAC | 0.154 ± 0.053
107 | CTTAGACA | 0.0657 ± 0.077
108 | CTAGTAGC | -0.138 ± 0.031
109 | CCAGCGGC | 0.143 ± 0.033
